110 sequences from article PMC10668032 can be followed below.

This is one part of the list. At the low end of the ranking the order means little.

This test deals with SIX1-Q177R homeodomain (UniProt Q15475). The test is described as follows: universal protein binding microarray. The conditions noted are these: Universal all-10-mer PBM (8x60K, AMADID 030236), 300 nM GST-tagged protein, Alexa Fluor 488 anti-GST; buffer, salt, pH and temperature not stated; high values mean tight binding; most listed sequences are background and not binding sites; double strand, one strand shown.
With AGTTAAAG, the binding signal was -0.00374 E-score.
Turning to CGAAGCGA, the binding signal is -0.0284 E-score.
As to CAATAACC, the binding signal is -0.164 E-score.
Consider CCGATCGG, for which the binding signal was -0.0749 E-score.
The same measure for ACTCACTA: -0.0869 E-score; for ACAATTCA: 0.053 E-score.
The same measure for TCCCTCCA: -0.194 E-score; for AATGGTTG: -0.171 E-score; for ACGATAGT: 0.157 E-score.
Consider CGTCACAC, for which the binding signal turned out to be 0.288 E-score.
To ATGCATAA belongs -0.168 E-score; to GTTCTCCA, -0.191 E-score; to AAGATGGA, -0.107 E-score.
Consider CAAACCGG, for which the binding signal was -0.0474 E-score.
The same measure for CCCACTCA: 0.148 E-score; for AGATTCTC: -0.1 E-score; for CTGGTCAA: -0.0008 E-score.
Consider CAGACTCC, for which the binding signal is -0.128 E-score.
With CTTGCAAA, the binding signal was -0.235 E-score.
For the sequence AACGGATC, the binding signal worked out at 0.184 E-score.
As to ATCGTCAA, the binding signal was 0.134 E-score.
With GACCGGGC, the binding signal is -0.0031 E-score.
Take CTCACCCA: the binding signal worked out at 0.0665 E-score.
Consider CGTTCTGC, for which the binding signal is -0.146 E-score.
Regarding CAACGACG, the binding signal is -0.0358 E-score.
For the sequence CGCGTAAC, the binding signal is -0.0289 E-score.
For CATCTCGG, the binding signal is -0.0625 E-score.
For the sequence GCCCAGAA, the binding signal was -0.312 E-score.
Take AATACATG: the binding signal was -0.111 E-score.
In the case of AAGTAGAC, the binding signal is -0.156 E-score.
To ATGGCGAG belongs -0.0298 E-score.
As to CCAGACCA, the binding signal is -0.11 E-score.
As for GGAATACC, the binding signal was found to be 0.00038 E-score.
As for TACGCAGA, the binding signal is -0.0348 E-score.
To CCTATACA belongs 0.142 E-score; to GGACCTAC, 0.0208 E-score.
To CCTCCCCC belongs -0.0748 E-score; to CTGAGCGC, -0.0844 E-score.
CAATTGCG: the binding signal was -0.283 E-score.
To AGCATCGG belongs -0.241 E-score; to AATTCCTA, -0.0786 E-score; to AGGCCGAG, -0.0412 E-score.
On to GCACCAGC, for which the binding signal was 0.142 E-score.
The same measure for CACTAGGA: 0.135 E-score; for GAGACGAC: 0.0983 E-score.
To CCGTCGTA belongs -0.0385 E-score; to GCCGAAAC, 0.02 E-score; to ACAATGAC, 0.111 E-score.
To CATTAATA belongs -0.11 E-score; to CGCTACAC, 0.402 E-score.
Take CAGCCTCG: the binding signal was -0.197 E-score.
Turning to GCTCCACC, the binding signal was -0.0871 E-score.
Regarding CGAAACGC, the binding signal is -0.144 E-score.
On to CAAAATTC, for which the binding signal is -0.0559 E-score.
With CCCGAGCG, the binding signal was 0.078 E-score.
To CTAAAGAA belongs -0.162 E-score; to CGAGCACA, 0.0753 E-score.
To ACATTGTA belongs -0.213 E-score; to CGGATACA, 0.294 E-score.
The same measure for ATGGCCCA: -0.303 E-score.
Turning to AGCGGAAC, the binding signal was -0.073 E-score.
AGTCACCC: the binding signal was -0.00406 E-score.
The same measure for CCGGTGCA: 0.203 E-score; for GAGTATAA: -0.0834 E-score.
As for GCTCAAGA, the binding signal was -0.24 E-score.
To GGAGTCAA belongs 0.2 E-score; to GGGTTATA, 0.23 E-score; to GGGCGCAA, -0.0493 E-score.
ATTAACTA: the binding signal was -0.0769 E-score.
To ACACACGT belongs 0.27 E-score; to CTAAATGC, -0.112 E-score; to CCGGATAA, 0.132 E-score.
As for AGTCGGTC, the binding signal is -0.162 E-score.
Turning to CATGGAGA, the binding signal stood at 0.0319 E-score.
Take CATTACAG: the binding signal is 0.039 E-score.
As for CGAGACTA, the binding signal is -0.00551 E-score.
The same measure for AGTTTAGA: -0.0508 E-score.
The same measure for GCTACAAC: -0.168 E-score; for GCCTGTAA: -0.021 E-score.
Turning to ACCGCTGC, the binding signal was 0.0752 E-score.
The same measure for CTGAAACC: 0.0356 E-score; for CGCCGTCC: -0.206 E-score.
On to ATACCGAG, for which the binding signal was -0.0446 E-score.
On to TCGATACA, for which the binding signal worked out at 0.198 E-score.
For CCATTAGG, the binding signal is -0.0946 E-score.
To GAGAATCA belongs -0.203 E-score.
To CGTGCCAC belongs -0.0208 E-score; to GACTTGGC, -0.271 E-score; to AAGAGCTC, -0.185 E-score.
Regarding TCAAGAGA, the binding signal was -0.179 E-score.
The same measure for AAATGTGG: -0.107 E-score; for CAGTAAAG: -0.195 E-score.
As to CTTGATTA, the binding signal was -0.067 E-score.
The same measure for ATCTTTAA: -0.19 E-score; for AGTACTAT: -0.0407 E-score; for CTACTACC: 0.0639 E-score.
As to CGCGAACA, the binding signal was determined as 0.143 E-score.
Regarding CCCCGAGG, the binding signal came to 0.213 E-score.
As for AGCACCCG, the binding signal came to 0.262 E-score.
To AGTTATAA belongs -0.0227 E-score; to CAGCTCGA, -0.197 E-score; to CAATACAC, 0.371 E-score.
Consider ACGCACCT, for which the binding signal was found to be 0.123 E-score.
With AGAAGGGG, the binding signal was 0.223 E-score.
For CTAAGCAA, the binding signal is -0.351 E-score.
As for ATATTTAC, the binding signal is 0.104 E-score.
In the case of GTATAGCA, the binding signal was 0.0673 E-score.
For the sequence CAACATGG, the binding signal was -0.0245 E-score.
With TTGTAAAA, the binding signal was -0.135 E-score.
The same measure for AAAAATAG: -0.165 E-score.
